The list shows a part of the results. At the low end of the ranking the order means little.

The assay concerns the target SIX1 homeodomain (reference allele) (UniProt Q15475). As to the kind of experiment: universal protein binding microarray. The following applies: Universal all-10-mer PBM (8x60K, AMADID 030236), 300 nM GST-tagged protein, Alexa Fluor 488 anti-GST; buffer, salt, pH and temperature not stated; high values mean tight binding; most listed sequences are background and not binding sites; double strand, one strand shown.
On to GGAGTGAA, for which the binding signal is -0.0345 E-score. With TCCTGGAA, the binding signal was -0.188 E-score. Regarding ACCTCTCA, the binding signal worked out at 0.0493 E-score. Consider CGACTTAA, for which the binding signal was -0.186 E-score.

As to CACCGACA, the binding signal was 0.172 E-score. Turning to TGAGATAA, the binding signal is 0.0863 E-score. For AATCGTAA, the binding signal is -0.0056 E-score.

As for GGGTCAGA, the binding signal is -0.0498 E-score. In the case of CCAACTAC it was 0.0733 E-score; in that of AGATACAT, 0.329 E-score. In the case of CCCACCTC it was -0.0533 E-score; in that of ATTGGTTA, -0.0152 E-score.

Consider CCCCACAC, for which the binding signal came out at 0.0515 E-score.

On to ATCCGATC, for which the binding signal was 0.43 E-score. As for CATCTTAG, the binding signal was 0.0299 E-score. For CACCCGCC, the binding signal amounted to 0.215 E-score. Under CCGGCTTC stands 0.0646 E-score; under ACCCGCGA, 0.116 E-score.

On to ATACGTGC, for which the binding signal was 0.358 E-score. Under CCGAATCC stands 0.163 E-score; under AGCACGGG, -0.251 E-score; under GGCGTTCA, -0.0936 E-score.

In the case of CCGTCTGA, the binding signal worked out at 0.11 E-score. In the case of CGCCATGC it was -0.135 E-score; in that of AAAATGCT, -0.17 E-score.

Regarding AGTGAACA, the binding signal is -0.12 E-score.

Consider AGCATAAG, for which the binding signal was -0.172 E-score. Under AGAGGTCA stands -0.241 E-score. Regarding AACACAGC, the binding signal is -0.123 E-score. Under GATGTTAC stands -0.178 E-score; under ATCGAACG, -0.0566 E-score; under ACATAGCG, -0.135 E-score. Under TAACGACA stands -0.157 E-score; under CACCAACC, -0.0297 E-score; under GACGAGGC, -0.066 E-score. Consider CGTGTATC, for which the binding signal was determined as 0.404 E-score. For the sequence CGATCCTC, the binding signal came to 0.333 E-score. Under CACCTATA stands 0.0576 E-score; under CCCCATAA, 0.0718 E-score. Under AACTCGTG stands -0.168 E-score.

As for AGTATGAT, the binding signal came out at 0.282 E-score.

Turning to AGTGTCAT, the binding signal was 0.272 E-score.

As to TATAGGAA, the binding signal stood at 0.0688 E-score. In the case of AGAAGACT it was -0.195 E-score. Take AAGAGTCC: the binding signal is -0.375 E-score.

As for GGTTCCAC, the binding signal is -0.244 E-score.

On to GATATAGA, for which the binding signal was 0.318 E-score. In the case of CTTCTGTC it was -0.0769 E-score; in that of TCATGCAA, 0.0584 E-score; in that of AGGCTTCG, -0.132 E-score. In the case of ATTACAAG it was -0.117 E-score.
